Assay results from PubChem BioAssay (Tox21).
“And” between values parts separate entries of the source, which are not always exact repeats. Equal entries are not always repeated. Inconclusive means that the source gave no clear call. Such entries were picked first, then a sample of the others. For some of these results: Potencies beside an inconclusive call are fits to weak or partial responses and may not hold up. The source made the active and inactive calls. Calls come from the whole dose curve; as a rule, active = well fitted curve in the direction sought with a large enough effect in the repeat runs; inconclusive = weak or mixed curves; inactive = no such curve, though single readings can be large; an effect the other way counts as inactive or inconclusive.

Columns and labels:
[1] = qHTS RealTime-Glo MT Cell Viability Assay in HEK293 cells - 24 hour (AID 1224886); details: RealTime-Glo luminescence; series mostly up to 76.8 µM; note: nearly all actives have a fitted effect of over 50% in size; note: potency is the fitted concentration of half-maximal effect
How it was run: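 Viability tracked continuously by luminescence as live cells reduce a prosubstrate for NanoLuc; HEK293 cells preincubated 5 h, compound-treated at 37 C, and read at 0, 8, 16, 24, 32 and 40 h.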

[2] = A CellTox Green Cytotoxicity Assay to monitor cytotoxicity in HEK293 cells - 16 hour (AID 1224888); details: CellTox Green fluorescence; series mostly up to 76.8 µM; note: nearly all actives have a fitted effect of over 35% in size
How it was run: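 Tox21 screen in HEK293: membrane-impermeant cyanine dye fluoresces on binding dead-cell DNA; compound pinned 5 h post-seeding, plates held at 37 C, signal read repeatedly through 40 h.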

[3] = qHTS RealTime-Glo MT Cell Viability Assay in HEK293 cells - 8 hour (AID 1224887); details: RealTime-Glo luminescence; series mostly up to 76.8 µM; note: nearly all actives have a fitted effect of over 50% in size; note: potency is the fitted concentration of half-maximal effect
How it was run: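 HEK293 + NanoLuc + prosubstrate, 600 cells/well; 5 h, 37 C/5% CO2; compound 23 nL in DMSO by pintool; 37 C; luminescence read at 0, 8, 16, 24, 32 and 40 h time points.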
Tags give direction and shape of the fitted curve.

SMILES | Potency [1] | Potency [2] | Potency [3]
COc1ccc(COC=O)cc1 | inactive | inactive | –
O=C(CCCN1CCC(O)(c2cccc(C(F)(F)F)c2)CC1)c1ccc(F)cc1 | active: 16.9 µM | – | active: 15.1 µM
CC(=O)Oc1ccc(C(c2ccc(OC(C)=O)cc2)c2ccccn2)cc1 | inconclusive: 54.6 µM [cytotoxic, single point] | – | inconclusive: 61.3 µM [cytotoxic, partial curve, poor fit]
c1ccc(CNc2ncnc3nc[nH]c23)cc1 | inconclusive: 43.6 µM [cytotoxic, partial curve] | – | inconclusive: 61.6 µM [cytotoxic, single point]
O=C1c2ccccc2-c2ccccc21 | inactive | – | –
C=CC(C)(CCC=C(C)C)OC(C)=O (stereo unspecified) | inactive | – | inactive
C/C(=C(/OCCOc1ccc(Cl)cc1)c1ccc(Cl)cc1Cl)n1ccnc1 | inconclusive: 21.3 µM [cytotoxic, partial curve, poor fit] | – | inconclusive: 21.3 µM [cytotoxic, partial curve, poor fit]
CC(=O)Oc1ccccc1C(=O)Nc1ncc([N+](=O)[O-])s1 | inconclusive: 17.7 µM [cytotoxic, full curve] and inconclusive: 26.8 µM [cytotoxic, single point] | – | inconclusive: 26.8 µM [cytotoxic, partial curve, poor fit]
CCCCCCCCCC/C=C/C#N | inactive | – | –
CCCCN(CCCC)C(=O)N(CCCC)CCCC | inactive | inactive | –
COc1cc(C(C)=O)ccc1OCCCN1CCC(c2noc3cc(F)ccc23)CC1 | active: 9.52 µM | inactive | –
O=[N+]([O-])c1ccc(O/N=C/c2cc(Br)c(O)c(Br)c2)c([N+](=O)[O-])c1 | active: 48.7 µM | – | inconclusive: 48.7 µM [cytotoxic, partial curve]
CC(C)CCCCCCCCCCCCCCC(=O)O | inconclusive: 49 µM [rising, partial curve, poor fit] | – | inactive
CCCCCOc1ccccc1/C(=C\SC)n1ccnc1 | inconclusive: 16.9 µM [cytotoxic, partial curve] | – | inconclusive: 19 µM [cytotoxic, partial curve]
CCCCCCCCCCCCOC(=O)c1ccc(O)cc1 | inconclusive: 44 µM [cytotoxic, partial curve] | – | inconclusive: 49.3 µM [cytotoxic, partial curve]
O=C1CCCN1C1CCCCC1 | inactive | – | –
C=CC(=O)OCCC#N | inconclusive: 62 µM [cytotoxic, single point] | – | inactive
CCC1OCC(COc2ccc(Oc3ccccc3)cc2)O1 (stereo unspecified) | inconclusive: 30.9 µM [cytotoxic, partial curve] | – | inconclusive: 27.5 µM [cytotoxic, partial curve, poor fit]
COc1ccc(Nc2ccc(OC)cc2)cc1 | inconclusive: 22.3 µM [cytotoxic, partial curve] | – | –
O=C(N/N=C/c1ccccc1O)c1ccncc1 | inconclusive: 21.3 µM [cytotoxic, partial curve] | – | inconclusive: 26.8 µM [cytotoxic, partial curve, poor fit]
C=C1C(=C/C=C2\CCC[C@]3(C)[C@@H]([C@H](C)/C=C/[C@@H](O)C4CC4)CC[C@@H]23)C[C@@H](O)C[C@@H]1O | active: 19 µM | – | –
CC1=NN(c2ccc(S(=O)(=O)O)cc2)C(=O)C1N=Nc1ccccc1 (stereo unspecified) | inconclusive: 38.9 µM [cytotoxic, partial curve] | – | inactive
CCOC(=O)c1c(N)sc2c1CCN(Cc1ccccc1)C2 | active: 19 µM | – | inconclusive: 26.8 µM [cytotoxic, partial curve]
COc1cc(CNC(=O)CCCC/C=C/C(C)C)ccc1O | active: 4.77 µM | – | active: 2.39 µM
CCCCC(CC)C(=O)O (stereo unspecified) | inconclusive: 12.5 µM [cytotoxic, single point] | – | inconclusive: 12.5 µM [cytotoxic, single point]
O=[N+]([O-])c1cccc(S(=O)(=O)NCCNS(=O)(=O)c2cccc([N+](=O)[O-])c2)c1 | – | inactive | –
